# Experimental data published in PubChem BioAssay AID1476 (National Center for Advancing Translational Sciences (NCATS), 2009).
# Among all 200,000 compounds or so, about 4,500 (2.2%) were called active. Inconclusive results, whose numbers are uncertain, are shown with a selection of clear calls. Calls come from the whole dose curve; as a rule, active = well fitted inhibition curve with a large enough effect; inconclusive = small, poorly fitted or top-dose-only effect, or effect the other way; inactive = flat fitted curve, though single readings scatter. Potencies beside an inconclusive call are fits to weak or partial responses and may not hold up.
# Molecular target: Cruzipain (Trypanosoma cruzi) (UniProt P25779)
# Sequence of UniProt P25779 (P25779 whole entry, looked up): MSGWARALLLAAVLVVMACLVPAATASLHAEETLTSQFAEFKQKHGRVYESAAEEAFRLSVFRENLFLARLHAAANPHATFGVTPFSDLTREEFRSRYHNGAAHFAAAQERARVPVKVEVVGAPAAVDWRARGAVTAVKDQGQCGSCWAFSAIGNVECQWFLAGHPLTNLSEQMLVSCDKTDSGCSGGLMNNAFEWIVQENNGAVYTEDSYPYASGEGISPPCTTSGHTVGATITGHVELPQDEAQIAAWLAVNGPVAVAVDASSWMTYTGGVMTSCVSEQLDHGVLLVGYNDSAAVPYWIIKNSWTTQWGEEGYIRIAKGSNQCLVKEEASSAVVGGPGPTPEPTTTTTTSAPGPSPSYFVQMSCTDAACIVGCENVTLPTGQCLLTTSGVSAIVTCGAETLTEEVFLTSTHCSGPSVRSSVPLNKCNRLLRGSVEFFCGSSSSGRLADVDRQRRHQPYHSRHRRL
# Experiment: qHTS Assay for Promiscuous and Specific Inhibitors of Cruzain (without detergent); note: nearly all actives have a fitted effect of over 40% in size;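 for max response, negative = inhibition: plate controls were enzyme without inhibitor for no effect and buffer without enzyme for full effect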
# Conditions: purified cruzain, Z-FR-AMC fluorescence, no detergent
# Procedure, shortened: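 Detergent-free condition (0.00005% Triton X-100) in acetate buffer pH 5.5 with DTT. 1.5 nM enzyme and compound were pre-mixed 15 min, then 2 uM Z-FR-AMC substrate added; reaction progress from fluorescence change between first and third reads (60 s).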
# Potency is the fitted concentration of half-maximal effect; tags give direction and shape of the fitted curve.
SMILES,Potency,"max response, negative = inhibition"
CCCCC(=O)NC(c1ccc(OC)c(OC)c1)c1c(O)ccc2ccccc12 (stereo not drawn),"inconclusive: 39.8 µM [activator, single point]",–
CCSc1ncc(Cl)c(C(=O)N(Cc2ccc(N(C)C)cc2)Cc2ccco2)n1,–,inactive: -22.4%
COCCNC(=O)c1ccc2c(c1)N(Cc1cc(C)ccc1C)C(=O)c1ccccc1S2(=O)=O,"inconclusive: 31.6 µM [activator, single point]",–
COc1ccc(S(=O)(=O)N2CCN(c3ccc(Cl)c(Cl)c3)CC2)c2ccccc12,active: 7.94 µM,–
Cc1cc(Cl)ccc1OCC(=O)N1CCCN(C(=O)COc2ccc(Cl)cc2C)CC1,"inconclusive: 31.6 µM [activator, single point]",–
Cc1cccc(C(=O)Nc2ccccc2C(=O)OCC(=O)Nc2ccc(C#N)cc2)c1,active: 31.6 µM,–
Cc1cccc(-c2nnn3c2nc(NCCc2ccc(S(N)(=O)=O)cc2)c2ccccc23)c1,"inconclusive: 25.1 µM [inhibitor, single point]",–
Cc1ccc(S(=O)(=O)N2CCOCC2)cc1NC(=O)COC(=O)c1ccc(OCc2c(C)noc2C)cc1,"inconclusive: 39.8 µM [activator, single point]",–
Cc1cccc(N2C(=O)CC(N3CCN(c4cccc(C(F)(F)F)c4)CC3)C2=O)c1 (stereo not drawn),"inconclusive: 31.6 µM [activator, partial curve]",–
Cc1ccc(Cl)cc1N1CCN(C(=O)C2CCN(S(=O)(=O)c3cccnc3)CC2)CC1,"inconclusive: 31.6 µM [activator, single point]",–
CCCc1[nH]n(-c2ccc(F)cc2)c(=O)c1C=Nc1cccc(F)c1,"inconclusive: 31.6 µM [inhibitor, single point]",–
CCOC(=O)C1CCN(C(=O)CCc2c(C)nc3c(-c4ccc(F)cc4)c(C)nn3c2C)CC1,"inconclusive: 25.1 µM [activator, partial curve]",–
CCOC(=O)c1ccc(NC(=O)CSc2nc3ccccc3c(=O)n2CCNC(C)=O)cc1,–,inactive: 0.707%
CCOCCCNC(=O)c1cc2c(-c3ccc(Cl)cc3)nn(C)c2s1,"inconclusive: 39.8 µM [activator, single point]",–
CN(C)S(=O)(=O)c1ccc(Nc2nc(C3CC3)nc3c2nnn3Cc2ccccc2Cl)cc1,"inconclusive: 3.16 µM [inhibitor, single point]",–
Cc1ccc(Cl)cc1N1CCN(C(c2ccc(C#N)cc2)c2nnnn2C2CCCC2)CC1 (stereo not drawn),active: 20 µM,–
CCc1ccc(NC(=O)C/C(C)=N/NC(=O)OCc2ccc(OC)cc2)cc1,"inconclusive: 25.1 µM [activator, single point]",–
COc1ccc(C)cc1NC(=O)C1CCN(S(=O)(=O)c2ccc3c(c2)CCCN3C(C)=O)CC1,"inconclusive: 39.8 µM [activator, single point]",–
Cc1ccc(C)c(NC(=O)Cn2c(=O)nc(-c3ccccc3)c3ccccc32)c1,"inconclusive: 39.8 µM [activator, single point]",–
CCc1ccc(C(=O)c2cn(CC(=O)Nc3cc(OC)ccc3OC)c3ccc(C)cc3c2=O)cc1,"inconclusive: 31.6 µM [inhibitor, single point]",–
C=CCn1c(=O)c2ccccc2n2c(SCc3nc4ccccc4s3)nnc12,"inconclusive: 39.8 µM [inhibitor, single point]",–

SMILES,Potency,"max response, negative = inhibition"
CCC(C)Nc1sc(S(=O)(=O)CC)nc1S(=O)(=O)c1ccc(C)cc1 (stereo not drawn),–,inactive: 5.93%
CCOc1ccc(CNC(=O)CCCn2nc(C)c3sc4ccccc4c3c2=O)cc1,active: 20 µM,–
Cc1ccc(C)c(N2CCN(C(=O)c3cc4c(=O)n(Cc5ccco5)ccc4nc3C)CC2)c1,"inconclusive: 31.6 µM [activator, single point]",–
COc1cccc(C(=O)Nc2cccc(NC(=O)c3ccc(Cl)cc3Cl)c2)c1,"inconclusive: 39.8 µM [inhibitor, single point]",–
CCC(C)(C)n1nnnc1C(c1ccncc1)N1CCC(Cc2ccccc2)CC1 (stereo not drawn),"inconclusive: 31.6 µM [activator, single point]",–
O=c1[nH]c2cc3c(cc2cc1CN(Cc1ccccc1)Cc1nnnn1Cc1ccco1)OCCO3,–,inactive: 8.44%
Cc1cc(NC(=O)CCNS(=O)(=O)c2ccc3c(c2)CCCC(=O)N3)ccc1Br,–,inactive: -1.43%
CCOC(=O)N1CCC(N2Cc3cccc(C(=O)NCc4ccccc4OC)c3C2=O)CC1,"inconclusive: 39.8 µM [activator, single point]",–
CCCSc1nsc(SCCC)c1C(N)=O,"inconclusive: 39.8 µM [inhibitor, single point]",–
COc1cccc(N2CCN(C(=O)C3CCN(S(=O)(=O)c4cccc5nonc45)CC3)CC2)c1,"inconclusive: 31.6 µM [activator, single point]",–
O=C(N/N=C/c1ccc2c(c1)OCO2)C1COc2ccccc2O1 (stereo not drawn),–,inactive: -10.3%
CCOC(=O)c1cc2c(=O)n3ccccc3nc2n(CCCOC)c1=NC(C)=O,"inconclusive: 39.8 µM [inhibitor, single point]",–
Cc1csc(NC(=O)/C=C/c2ccc3c(c2)OCO3)n1,–,inactive: -13.8%
O=C(c1ccco1)N1CCN(C(=O)c2ccccc2OC(=O)C23CC4CC(CC(C4)C2)C3)CC1,"inconclusive: 31.6 µM [activator, single point]",–
CCC(Sc1nc(=O)cc(N)n1-c1cccc(C)c1)C(=O)Nc1cc(C)on1 (stereo not drawn),–,inactive: -26%
Cc1cccc(C)c1N=C1NN=C(c2ccccc2F)CS1,"inconclusive: 25.1 µM [inhibitor, single point]",–
COC(=O)c1cccc(C23CC4(C2)[C@H](CN(Cc2ccc(-c5ccccc5)cc2)[C@@H]4c2ccccc2)C3c2ccc(C(F)(F)F)cc2)c1 (stereo partly drawn),active: 25.1 µM,–
O=S(=O)(Nc1cc(Sc2cccc3cccnc23)c(O)c2ccccc12)c1ccccc1,active: 3.16 µM,–
COC(=O)[C@@]1(Cc2ccccc2)[C@H]2c3cc(C(=O)N4CCCC4)n(Cc4ccc(C(F)(F)F)nc4)c3C[C@H]2CN1C(=O)c1ccccc1,"inconclusive: 31.6 µM [activator, partial curve]",–
Cc1nn(-c2ccccc2)c(C)c1/C=N/NC(=O)CSc1nnc(SCc2ccccc2Cl)s1,"inconclusive: 39.8 µM [inhibitor, single point]",–
COCCCNC(=O)CNC(=S)N(Cc1ccc(F)cc1)C1CCCCC1,"inconclusive: 31.6 µM [activator, single point]",–

SMILES,Potency,"max response, negative = inhibition"
O=[N+]([O-])c1ccccc1/C=N/n1c(C2CCCCC2)n[nH]c1=S,–,inactive: 4.58%
CCOc1cccc(C(=O)N(Cc2ccc(N(C)C)cc2)CC2CCCO2)c1 (stereo not drawn),–,inactive: 6.22%
Cn1c(=O)n(C)c2cc(N3CCOCC3)c(NS(=O)(=O)c3ccc(C(C)(C)C)cc3)cc21,"inconclusive: 31.6 µM [activator, single point]",–
CCc1ccc(CNCc2c(C(=O)O)c(C)n(Cc3c(F)cccc3Cl)c2C)cc1,"inconclusive: 39.8 µM [inhibitor, single point]",–
COc1cccc(-n2c(=O)c3c(C)c(C)sc3n(CC(=O)Nc3ccccc3OC)c2=O)c1,–,inactive: -6.69%
S=C1NCCc2ccccc2C1c1ccccc1 (stereo not drawn),active: 31.6 µM,–
COc1cc(/C=N/Nc2ccccc2)ccc1OC(=O)c1cccs1,active: 12.6 µM,–
COc1ccc2c(c1)C(=O)[C@@H](OC(=O)Nc1ccc(C)c(Br)c1)[C@H](c1ccc(OC)c(Br)c1)O2,active: 25.1 µM,–
O=C(O)c1c(-c2ccccc2)oc2ccc(OCc3ccc(Cl)c(Cl)c3)cc12,–,inactive: 11.3%
CCCCCCC(=O)Nc1cc2c(C)cc(=O)oc2cc1C,"inconclusive: 39.8 µM [inhibitor, single point]",–
Cc1cccc(C)c1N=C1SC(CC(=O)Nc2c(C)cccc2C)C(=O)N1CCc1ccccn1 (stereo not drawn),"inconclusive: 31.6 µM [activator, single point]",–
COc1ccc2[nH]c(=O)c(CN(Cc3nnnn3CCc3ccccc3)CC3CCCO3)cc2c1 (stereo not drawn),"inconclusive: 31.6 µM [activator, single point]",–
CCC(C)c1ccc(OCCn2cc(/C=N/NC(=O)CSc3nnc(C)s3)c3ccccc32)cc1 (stereo not drawn),active: 3.98 µM,–
CCOc1ccc(OCc2cccc(C(=O)N/N=C/c3cccnc3)c2)cc1,"inconclusive: 25.1 µM [activator, single point]",–
COc1cccc(C(=O)NCC(c2ccc(N(C)C)cc2)N2CCc3ccccc32)c1 (stereo not drawn),"inconclusive: 10 µM [inhibitor, single point]",–
Cc1ccc(CCNC(=O)c2c[nH]c3ccc(S(=O)(=O)Nc4ccc(C)cc4C)cc3c2=O)cc1,"inconclusive: 10 µM [inhibitor, single point]",–
COc1ccc(-n2c(Cc3cccn3C)nnc2SCC(=O)NCC2CCCO2)cc1 (stereo not drawn),"inconclusive: 39.8 µM [activator, single point]",–
COc1ccc2nc(Nc3nc4cc5c(cc4s3)OCCO5)sc2c1,"inconclusive: 39.8 µM [inhibitor, single point]",–
Cc1ccc(C)c(S(=O)(=O)c2nnn3c2nc(Nc2ccc(C)c(C)c2)c2ccccc23)c1,–,inactive: -2.08%
C/C=C(\C)C(=O)O[C@H]1CC(C)=C2C(=O)C=C(C)C2[C@@H]2OC(=O)[C@@](C)(OC(=O)C=C(C)C)C21 (stereo partly drawn),"inconclusive: 39.8 µM [activator, single point]",–
Cc1ccccc1C(=O)Nc1ccc(OCc2cc(=O)n3ccccc3n2)cc1,–,inactive: 4.91%
